These are yes or no findings as the source states them, for the method shown. For some of these results: Binding seen in cells or lysates may run through a third protein. Some entries that bind do so weakly or less than the wild type. Where a sequence is shown, tags or fusion partners need not be part of it.
Tests used:
[1] = molecular target: T1, Flag-MISP (human) (UniProt Q8IVT2); experiment: co-IP; Flag-MISP and HA-PLK1 in SNU-216 shCtrl or SHCBP1 knockdown cells; anti-Flag M2 agarose
T1 sequence: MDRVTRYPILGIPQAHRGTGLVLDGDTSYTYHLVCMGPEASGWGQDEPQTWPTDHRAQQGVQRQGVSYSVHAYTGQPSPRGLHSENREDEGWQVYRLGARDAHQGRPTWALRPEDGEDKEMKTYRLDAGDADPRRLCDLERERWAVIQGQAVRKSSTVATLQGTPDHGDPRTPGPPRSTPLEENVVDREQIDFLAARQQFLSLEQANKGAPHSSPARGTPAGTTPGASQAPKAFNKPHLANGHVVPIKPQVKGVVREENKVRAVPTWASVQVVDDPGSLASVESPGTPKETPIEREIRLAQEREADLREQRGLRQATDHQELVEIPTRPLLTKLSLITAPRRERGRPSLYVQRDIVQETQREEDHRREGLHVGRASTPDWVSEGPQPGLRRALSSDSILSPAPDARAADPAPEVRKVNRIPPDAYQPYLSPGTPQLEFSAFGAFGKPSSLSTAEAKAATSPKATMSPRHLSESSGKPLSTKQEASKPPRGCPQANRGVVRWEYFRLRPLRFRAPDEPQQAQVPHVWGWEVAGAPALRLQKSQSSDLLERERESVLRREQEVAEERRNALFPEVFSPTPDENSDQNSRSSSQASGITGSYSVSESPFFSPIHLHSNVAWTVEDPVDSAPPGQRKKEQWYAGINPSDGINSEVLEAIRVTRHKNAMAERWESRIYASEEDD

[2] = molecular target: T2, SHCBP1 bait (Gal4 DNA-binding domain fusion, pGBKT7) (human) (UniProt Q8NEM2); experiment: two-hybrid; Matchmaker system (Clontech); baits in pGBKT7, preys in pACT2; growth on -Ade/-His/-Leu/-Trp
T2 sequence: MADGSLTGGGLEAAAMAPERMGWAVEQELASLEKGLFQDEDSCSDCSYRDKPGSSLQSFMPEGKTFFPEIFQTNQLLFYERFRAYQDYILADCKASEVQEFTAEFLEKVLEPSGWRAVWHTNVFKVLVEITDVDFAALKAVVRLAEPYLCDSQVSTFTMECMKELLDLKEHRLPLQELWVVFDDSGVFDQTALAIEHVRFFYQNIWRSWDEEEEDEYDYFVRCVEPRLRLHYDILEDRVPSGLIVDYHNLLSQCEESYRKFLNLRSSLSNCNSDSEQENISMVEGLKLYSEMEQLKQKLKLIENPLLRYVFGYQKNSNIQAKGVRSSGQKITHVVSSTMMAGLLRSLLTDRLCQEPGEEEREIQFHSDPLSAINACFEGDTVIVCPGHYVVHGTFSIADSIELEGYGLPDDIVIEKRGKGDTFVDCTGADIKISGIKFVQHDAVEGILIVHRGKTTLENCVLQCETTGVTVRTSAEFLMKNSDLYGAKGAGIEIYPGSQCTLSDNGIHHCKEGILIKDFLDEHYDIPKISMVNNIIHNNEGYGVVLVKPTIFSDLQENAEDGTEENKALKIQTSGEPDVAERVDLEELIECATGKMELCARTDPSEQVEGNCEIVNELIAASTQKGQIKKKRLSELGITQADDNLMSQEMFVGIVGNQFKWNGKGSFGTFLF

[3] = molecular target: T3, Flag or HA-tagged SHCBP1 (co-expressed for co-immunoprecipitation) (human) (UniProt Q8NEM2); experiment: co-IP; SHCBP1 and PLK1, their deletion mutants, domains and point mutants (Fig. 6a, b, e, f); cells not given; anti-Flag M2 agarose; also after TFBG at increasing concentrations
T3 sequence: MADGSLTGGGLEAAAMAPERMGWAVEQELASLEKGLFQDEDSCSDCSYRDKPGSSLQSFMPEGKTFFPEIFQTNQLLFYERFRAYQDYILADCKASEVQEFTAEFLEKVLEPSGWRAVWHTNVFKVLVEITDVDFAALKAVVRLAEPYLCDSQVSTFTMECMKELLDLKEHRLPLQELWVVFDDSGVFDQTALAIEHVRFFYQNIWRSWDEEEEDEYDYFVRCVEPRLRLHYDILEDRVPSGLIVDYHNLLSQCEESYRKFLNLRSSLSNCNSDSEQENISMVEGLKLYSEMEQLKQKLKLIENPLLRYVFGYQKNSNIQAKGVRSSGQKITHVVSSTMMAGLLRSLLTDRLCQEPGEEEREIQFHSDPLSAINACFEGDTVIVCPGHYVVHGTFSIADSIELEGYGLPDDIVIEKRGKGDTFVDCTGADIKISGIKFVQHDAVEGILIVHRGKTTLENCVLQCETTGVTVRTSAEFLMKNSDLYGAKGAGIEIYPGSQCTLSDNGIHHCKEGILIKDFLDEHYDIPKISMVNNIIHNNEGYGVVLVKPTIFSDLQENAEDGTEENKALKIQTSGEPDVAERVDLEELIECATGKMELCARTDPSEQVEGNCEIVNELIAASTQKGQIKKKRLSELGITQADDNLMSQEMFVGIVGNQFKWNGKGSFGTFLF

| binding [3] | Substance | also measured |
| --- | --- | --- |
|  | HA-PLK1 (from UniProt P53350 1-603) (enzyme) | binding [1]: binds |
|  | polo-box domain (PBD) of PLK1 (yeast two-hybrid construct) (from UniProt P53350 367-603) (domain or fragment) | binding [2]: binds |
| binds | polo-box domain (PBD) of PLK1 (co-immunoprecipitation construct) (from UniProt P53350 367-603) (domain or fragment) |  |
| no binding | kinase domain (KD) of PLK1 (co-immunoprecipitation construct) (from UniProt P53350 53-305) (domain or fragment) |  |
